# Results published in PMC12040169 (PLOS Biology, 2025).
# The list shows a part of the results.
# Test system: T1, C. trachomatis L2/434/Bu expressing GFP (CTL2-GFP)
# T1 construct: L2/434/Bu GFP intracellular growth in HeLa cells
# Design: species or system HeLa; C. trachomatis total inclusion area by high-content imaging, normalised to DMSO
# Settings: total inclusion area; 28.5 h, 10 µM; inhibitor
# In short: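 After bulk GFP and resorufin fluorescence reads, cells were fixed, stained with Hoechst and imaged by high-content microscopy. Inclusion area and number (GFP) stood in for chlamydial growth, nuclei count (Hoechst) for host cell viability. MICs were derived as for the bulk readout.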
row,SMILES,% of control remaining
1,O=C(CCCn1cccn1)N1CCOC(c2ccc(Cl)cc2)C1 (stereo not drawn) [CBK304643],69.9556
2,COc1cc(C(=O)Nc2nc(Cc3n[nH]c(=S)n3C)cs2)ccc1C [CBK296683],109.144
3,COC(=O)c1ccccc1NC(=O)CNS(=O)(=O)c1c(C)cc(C)cc1C [CBK265974],51.694
4,Cc1nc2c(c(N3CCN(c4ccc(O)cc4)CC3)n1)CN(Cc1ccccc1)CC2 [CBK286177],97.218
5,COc1cccc(CC(=O)N2[C@H](Cc3ccccc3)C[C@@H]3NCCCCC[C@H]32)c1 [CBK286030],83.6776
6,O=C(NCCN1CCCC1)c1ccc(Nc2cncc(-c3ccc(O)cc3)n2)c(Cl)c1 [CBK122666],76.5936
7,Cc1nn(CC(=O)N2CCC(C)CC2)c(=O)c2cc3ccsc3n12 [CBK284081],107.006
8,CCc1nccn1C(C)C(=O)Nc1ccc2ncn(C)c2c1 (stereo not drawn) [CBK281745],83.29
9,Cc1nn2c(CN(C(=O)c3ccccc3)c3ccccc3)nnc2c2ccccc12 [CBK268084],92.3443
10,O=C(NCCCN1CCOCC1)Nc1cccc(Cl)c1Cl [CBK016286],52.2987
11,CN1CCN(S(=O)(=O)c2ccc3c4c(cccc24)C(=O)N3)CC1 [CBK266647],93.5079
12,O=C(COc1ccccc1)Nc1cnc(-c2ccc(F)cc2)c(-c2ccsc2)n1 [CBK036958],102.968
13,CC(=O)c1ccc(NC(=O)C2C3C=CC(C3=C(c3ccccc3)c3ccccc3)C2C(=O)O)cc1 (stereo not drawn) [CBK265696],108.636
14,O=C(O)CCC(=O)Nc1cc(C(F)(F)F)ccc1N1CCCC1 [CBK057434],79.461
15,COc1nccnc1N1CCN(Cc2ccc(Cl)c(Cl)c2)CC1 [CBK084209],85.9561
16,COCCN1CCN(C(=O)[C@@H]2Cc3c[nH]c4cccc(c34)[C@H](CC(C)C)N2)CC1 [CBK289419],122.615
17,NS(=O)(=O)c1ccc(CCNC2CC(=O)N(Cc3cccs3)C2=O)cc1 (stereo not drawn) [CBK266579],138.483
18,O=C(C1=C(O)C(=O)N(CCCn2ccnc2)C1c1ccncc1)c1ccc(F)cc1 (stereo not drawn) [CBK264601],104.491
19,O=c1c([N+](=O)[O-])c(O)c2ccccc2n1-c1ccccc1 [CBK115316],94.0673
20,O=C1NC2(CCCCCC2)C(=O)N1Cc1cnn(-c2ccccc2)n1 [CBK305571],80.4656
21,CCCC/C=C/c1cncc(N(C)CCN(C)C)n1 [CBK065374],130.635
22,O=C(CN1C(=O)c2ccccc2C1=O)Nc1cc(C(=O)O)cc(C(=O)O)c1 [CBK262024],105.895
23,Cc1ccc2c(c1)C(=O)CC1(CCN(C(=O)OC(C)(C)C)CC1)O2 [CBK283599],65.928
24,O=C(O)C1=NN(c2ccccc2)C(=O)CC1 [CBK270176],86.129
25,COc1nc(Cl)nc(Oc2ccc(F)cc2)n1 [CBK011279],96.5183
26,Cc1ccc(-c2nccnc2OCc2ccccn2)c(C)c1 [CBK106979],100.979

row,SMILES,% of control remaining
1,Cc1cc(NC(=O)C2CCN(C(=O)c3cnc(N)c(Cl)c3)CC2)no1 [CBK305545],33.0206
2,Cc1scc(C(=O)NCc2ccccn2)c1-c1ccccc1 [CBK268107],78.5569
3,N#CCCCN1CCC(Oc2nccnc2OCCN2C(=O)CCC2=O)CC1 [CBK084349],86.8538
4,CCc1nc2ccc(C(=O)N3CCN(S(=O)(=O)CC)CC3)cn2c1N(C)CC [CBK145520],70.1986
5,Clc1cc2nc(OC3CCCNC3)c(N3CCCC3)nc2cc1Cl (stereo not drawn) [CBK113454],84.8502
6,COc1ccc(Cl)cc1N1CCN(CC(=O)Nc2ccc(F)c(Cl)c2)CC1 [CBK126417],95.9183
7,Cc1nnc(SCc2ccc(CSc3nnc(C)c(=O)[nH]3)cc2)[nH]c1=O [CBK268085],86.823
8,Cc1ccc2c(c1)nc(-c1ccc(O)cc1)n2Cc1ccc(O)cc1 [CBK291226],71.5963
9,O=C(Cc1nnn[nH]1)Nc1cccc(-c2nn[nH]n2)c1 [CBK160122],93.4064
10,COC(=O)CCC(=O)Nc1cccc([N+](=O)[O-])c1 [CBK261345],97.28
11,O=C(Cn1c(=O)cc(O)c2ccccc21)Nc1cccc(F)c1 [CBK291242],129.961
12,COCCNC(=O)N1CCN(CCc2ccccc2)CC1 [CBK158909],130.648
13,CN(C)CCNC(=O)c1cccc(-c2cnc3[nH]c(=O)n(C4CCCCC4)c3n2)c1 [CBK064191],117.49
14,CCCCC(O)(Cc1onc(-c2ccccc2)c1C(=O)N(C)C)c1ccc(CN2CCCC2)cc1 (stereo not drawn) [CBK034415T],0.107
15,Cc1nc2c(c(=O)[nH]1)CC[C@@H]1CN(C(=O)Cc3cccc(F)c3)C[C@H]21 [CBK284413],65.8572
16,Cc1ccc(OCC(=O)Nc2cccc(C(=O)O)c2)cc1 [CBK287023],83.3337
17,COc1cnc(/C=C\c2ccccc2)c(NC(=O)c2ccco2)n1 [CBK145361],128.376
18,COC(=O)c1ccc(-c2cn3ccnc3c(NCc3ccncc3)n2)cc1 [CBK066734],80.0941
19,COc1ccc2c(c1)C(C[C@H]1CN(C(=O)C3CC3)CC[C@H]1CC(=O)O)=NCC2 [CBK289157],91.5154
20,CCn1cc(C(=O)O)c(=O)c2cc(F)c(N3CCN(C(=S)Nc4cc(OC)ccc4OC)CC3)cc21 [CBK265831],98.468
21,Cc1ccc(CN2CCCN(C(=O)Cn3nc4ccccn4c3=O)CC2)cc1 [CBK297768],95.6796
22,O=C(CSc1ncccc1C(=O)O)Nc1ccc(Oc2ccccc2)cc1 [CBK266340],108.058
23,Cc1cccc(CN(CC(=O)Nc2ccc(F)cc2F)S(=O)(=O)c2ccc(Cl)cc2)c1 [CBK265164],101.562
24,COc1ccc(C)cc1-n1ccc(C(=O)NC(C)(C)C)n1 [CBK306315],73.3906
25,CC(C)CC(NC(=O)Cc1cccc(O)c1)c1nnc2n1CCNCC2 (stereo not drawn) [CBK307183],78.3089
26,CN1CCN(CC(O)COc2ccccc2)CC1 (stereo not drawn) [CBK278191G],107.765

row,SMILES,% of control remaining
1,Cc1cc(C)n(CCC(=O)N2C[C@@H]3CCCCN(CC4CC4)[C@@H]3C2)n1 [CBK285505],100.105
2,CN(C(=O)CCn1c(=O)oc2cc(Cl)ccc21)C1CCNC1 (stereo not drawn) [CBK304310C],70.3576
3,CN(C)CCOc1ccc2c(c1)OC1(CCN(C(=O)c3ccc4sc(N)nc4c3)CC1)CC2=O [CBK169380],61.9085
4,CC(C)C(=O)NC(c1ccc(C(C)C)cc1)c1cc([N+](=O)[O-])c2cccnc2c1O (stereo not drawn) [CBK265303],77.7102
5,CCN(CC)C(=O)CN1CCN(c2nccnc2OCC2COc3ccccc3O2)CC1 (stereo not drawn) [CBK082803T],53.9472
6,c1ccc(CSc2ccc(-c3ccncc3)nn2)nc1 [CBK287638],125.846
7,COc1ccc(S(=O)(=O)Nc2ccncc2)cc1N(C)S(=O)(=O)c1ccccc1 [CBK267179],92.5965
8,O=[N+]([O-])c1cc(S(=O)(=O)Nc2cccc(-c3cnco3)c2)ccc1Cl [CBK067125],26.7659
9,Cc1cc(NS(=O)(=O)c2ccc(NC(=O)c3cc(-c4ccc(C)o4)nc4ccccc34)cc2)nc(C)n1 [CBK262628],104.039
10,CCn1cc(CN(CCO)C(=O)c2cccc(C#N)c2C)cn1 [CBK304196],106.002
11,O=C1O[C@@H](CCl)CN1c1ccc(N2CCOCC2)c(F)c1 [CBK017613],70.2842
12,COc1ccc(CC(=O)Nc2nc(OC)cnc2-c2ccoc2)cc1 [CBK145435],104.432
13,CCCOc1ccc(C(N)CC(=O)O)cc1 (stereo not drawn) [CBK261360],97.5727
14,COc1ccccc1C1(O)CCN(CC(O)c2ccc(C(C)(C)C)cc2)CC1 (stereo not drawn) [CBK286335],38.3222
15,CN1CCN(c2cc(N3CCN(C(=O)c4ccc(F)cc4F)CC3)c([N+](=O)[O-])cc2F)CC1 [CBK265280],98.5082
16,O=C(Nc1nn(Cc2ccc(Oc3ccccc3)cc2)c2ccccc12)c1ccno1 [CBK048224],78.1711
17,O=C(NCC1CCCO1)c1ccc(-n2ccnc2)c(-n2cccc2)c1 (stereo not drawn) [CBK285356],86.0154
18,O=C(CN1CCC2(CC1)CN(CCO)c1ccccc12)Nc1ccc(F)c(Cl)c1 [CBK126761],63.7717
19,FC(F)(F)c1ccncc1-n1cccc1 [CBK021909],93.3974
20,O=C(CSc1nnc(-c2cccnc2)n1-c1ccccc1)Nc1ccc(Br)cc1 [CBK265203],75.0248
21,O=C1CC(C(=O)N2CCN(c3ncccn3)CC2)c2ccccc21 (stereo not drawn) [CBK144505],82.1366
22,CN(Cc1ccccc1)Cc1cc(CC2(NCc3ccccc3)COC2)no1 [CBK289645],105.506
23,c1ccc2c(Sc3nccnc3N3CCCC3)cccc2c1 [CBK089527],93.6652
24,Clc1ccc(COc2ccc(/C=N/Nc3nc(N4CCOCC4)nc(N4CCOCC4)n3)cc2)c(Cl)c1 [CBK262061],102.246
25,Nc1ccc(-c2cncc(NCCc3ccccn3)n2)cc1 [CBK065632],129.486
26,Cc1ccccc1C(NC(=O)C1CCN(C(=O)OCc2ccccc2)CC1)c1ccc(=O)[nH]c1 (stereo not drawn) [CBK083200],89.2232
